Results published in the supplement of paper PMC6531468.
Some of the results follow. Read counts after selection give these values, which scatter widely. Each score is taken over the longer molecules that contain the sequence shown.

How the values were obtained:
Test in all cases: 6-mer SELEX enrichment z-score vs GST control; IMP3 is the RNA-binding protein IGF2BP3; higher = more enriched by binding
[1] = test system: IMP3 KH1-4; details: construct: KH1-4 (164-579); SELEX round: R4
Experimental: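 SELEX-seq with GST-tagged IMP3 KH1-4 (Pro164-Lys579) and an N40 RNA pool, round 4. 6-mer z-score of sequence-tag enrichment normalised to the corresponding GST SELEX round; RNA k-mers written as DNA (T for U).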

[2] = test system: IMP3 RRM1-2; details: construct: RRM1-2 (1-163); SELEX round: R2
Experimental: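 SELEX-seq with GST-tagged IMP3 RRM1-2 (Met1-Asn163) and an N40 RNA pool, round 2. 6-mer enrichment z-score normalised to GST SELEX. RNA written as DNA (T = U).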

[3] = molecular target: IMP3 full-length (UniProt O00425); details: construct: FL IMP3 (1-579); SELEX round: R4
Experimental: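 SELEX-seq with GST-tagged full-length IMP3 and an N40 RNA pool, round 4. Each 6-mer is scored as an enrichment z-score of sequence tags containing it, normalised to the matching GST SELEX round. RNA written as DNA (T = U).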

[4] = test system: IMP3 KH1-2; details: construct: KH1-2 (164-376); SELEX round: R4
Experimental: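 SELEX-seq with GST-tagged IMP3 KH1-2 (Pro164-Phe376) and an N40 RNA pool, round 4 (stringent 300/600 mM KCl washes). 6-mer z-score of sequence-tag enrichment normalised to the corresponding GST SELEX round; RNA k-mers written as DNA (T for U).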

[5] = test system: IMP3 KH3-4; details: construct: KH3-4 (377-579); SELEX round: R4
Experimental: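 SELEX-seq with GST-tagged IMP3 KH3-4 (Pro377-Lys579) and an N40 RNA pool, round 4. 6-mer z-score of sequence-tag enrichment normalised to the corresponding GST SELEX round; RNA k-mers written as DNA (T for U).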

IMP3 RRM1-2, sequence (chain, as listed by the source): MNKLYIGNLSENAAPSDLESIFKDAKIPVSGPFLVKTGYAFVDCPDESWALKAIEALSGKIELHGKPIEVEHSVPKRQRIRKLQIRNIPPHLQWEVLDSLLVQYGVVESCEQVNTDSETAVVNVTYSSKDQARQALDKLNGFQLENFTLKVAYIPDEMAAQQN
IMP3 KH3-4, sequence (chain, as listed by the source): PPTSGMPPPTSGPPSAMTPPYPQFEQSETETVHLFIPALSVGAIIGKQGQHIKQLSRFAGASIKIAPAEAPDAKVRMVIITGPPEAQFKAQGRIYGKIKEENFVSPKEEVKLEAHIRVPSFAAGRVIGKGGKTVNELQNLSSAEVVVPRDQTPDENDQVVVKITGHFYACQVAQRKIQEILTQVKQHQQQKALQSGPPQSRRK
IMP3 KH1-4, sequence (chain, as listed by the source): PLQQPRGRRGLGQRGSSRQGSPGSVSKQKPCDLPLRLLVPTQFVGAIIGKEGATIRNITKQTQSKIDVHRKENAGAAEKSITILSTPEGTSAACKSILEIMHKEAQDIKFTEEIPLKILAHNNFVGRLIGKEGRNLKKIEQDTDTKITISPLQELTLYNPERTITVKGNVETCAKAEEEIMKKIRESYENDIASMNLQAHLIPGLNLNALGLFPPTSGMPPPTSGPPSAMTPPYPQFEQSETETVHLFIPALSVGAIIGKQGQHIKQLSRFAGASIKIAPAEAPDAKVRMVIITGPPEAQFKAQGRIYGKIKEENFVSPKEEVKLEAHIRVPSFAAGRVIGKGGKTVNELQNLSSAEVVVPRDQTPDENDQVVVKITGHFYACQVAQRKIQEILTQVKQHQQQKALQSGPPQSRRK
IMP3 KH1-2, sequence (chain, as listed by the source): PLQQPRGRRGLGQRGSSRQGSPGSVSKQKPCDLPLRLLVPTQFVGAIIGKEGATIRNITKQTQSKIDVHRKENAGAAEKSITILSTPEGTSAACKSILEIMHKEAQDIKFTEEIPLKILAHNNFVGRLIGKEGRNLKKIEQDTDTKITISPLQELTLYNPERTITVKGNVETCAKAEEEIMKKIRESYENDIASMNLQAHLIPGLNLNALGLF
UniProt O00425, sequence (O00425 whole entry): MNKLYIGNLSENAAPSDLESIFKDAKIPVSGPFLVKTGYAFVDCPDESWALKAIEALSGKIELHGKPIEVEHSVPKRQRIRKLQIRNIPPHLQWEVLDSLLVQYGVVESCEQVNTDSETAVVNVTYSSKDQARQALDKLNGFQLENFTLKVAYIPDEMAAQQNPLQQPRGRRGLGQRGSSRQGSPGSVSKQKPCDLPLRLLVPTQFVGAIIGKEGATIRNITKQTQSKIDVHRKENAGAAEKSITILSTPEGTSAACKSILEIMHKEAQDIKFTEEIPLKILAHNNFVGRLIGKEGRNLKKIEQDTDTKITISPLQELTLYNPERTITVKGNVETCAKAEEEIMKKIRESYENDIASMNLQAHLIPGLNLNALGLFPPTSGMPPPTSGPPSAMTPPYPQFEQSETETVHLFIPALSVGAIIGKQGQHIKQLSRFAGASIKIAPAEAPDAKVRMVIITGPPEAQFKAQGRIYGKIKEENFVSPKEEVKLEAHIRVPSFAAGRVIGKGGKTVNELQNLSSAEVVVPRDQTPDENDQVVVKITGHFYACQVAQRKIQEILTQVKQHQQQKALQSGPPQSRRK

Row | Sequence | 6-mer SELEX enrichment z-score [1] | 6-mer SELEX enrichment z-score [2] | 6-mer SELEX enrichment z-score [3] | 6-mer SELEX enrichment z-score [4] | 6-mer SELEX enrichment z-score [5]
1 | AAAGGA | 0.468 | -1.7 | -0.912 | 0.084 | 1.09
2 | AATCTT | 0.151 | 0.14 | -0.033 | 0.043 | 0.191
3 | GTGAGT | -0.017 | -0.073 | -0.073 | -0.043 | 0.114
4 | GTTCGA | -0.709 | -0.025 | -0.385 | -0.644 | -0.54
5 | GATTAG | 0.593 | -0.219 | -0.034 | 0.42 | 0.88
6 | TTTTGC | 0.143 | 0.179 | -0.137 | 0.124 | 0.228
7 | ATAACG | 0.827 | -0.636 | -0.107 | 0.627 | 1.27
8 | GGGGTC | 0.34 | 0.342 | 0.483 | 0.573 | 0.428
9 | TTGCAT | 0.737 | 0.437 | 0.486 | 0.502 | 0.553
10 | TGTGAA | 0.498 | -0.793 | -0.736 | 0.041 | 0.576
11 | GCAAGG | 0.317 | -0.103 | 0.589 | 0.271 | 0.265
12 | GTTTAG | -0.108 | 0.284 | -0.109 | -0.087 | 0.161
13 | TCATCC | 0.45 | 0.866 | 0.656 | 0.323 | -0.263
14 | TACTGG | 0.126 | 0.182 | 0.014 | 0.071 | 0.121
15 | TGGATG | 0.785 | -0.115 | 0.069 | 0.509 | 0.72
16 | AGCTGA | -0.988 | -0.406 | -0.619 | -0.919 | -0.818
17 | GCTTCC | 0.091 | 0.118 | 0.043 | 0.071 | -0.203
18 | CAGGTT | 0.161 | 0.52 | 0.316 | 0.132 | 0.153
19 | TCATGA | 0.536 | 0.882 | 0.885 | 0.415 | 0.482
20 | AGGACT | 0.189 | -0.415 | -0.206 | 0.095 | 0.189

Row | Sequence | 6-mer SELEX enrichment z-score [1] | 6-mer SELEX enrichment z-score [2] | 6-mer SELEX enrichment z-score [3] | 6-mer SELEX enrichment z-score [4] | 6-mer SELEX enrichment z-score [5]
21 | AAACTA | 0.569 | -1.26 | -1.16 | 0.625 | 1.31
22 | GCAATA | 1.2 | -0.026 | 0.868 | 1.16 | 1.53
23 | GTGCAG | 0.5 | 0.142 | 0.436 | 0.333 | 0.247
24 | CAACTG | -0.168 | -0.244 | -0.124 | -0.13 | -0.488
25 | CAAGTT | -0.21 | 0.266 | -0.149 | -0.275 | -0.194
26 | GGGCTT | -0.017 | 0.457 | 0.252 | 0.135 | 0.312
27 | AGGATG | 1.03 | -0.333 | 0.188 | 0.789 | 1.17
28 | AACCAA | -1.69 | -0.448 | -2.06 | -1.54 | -1.94
29 | TGATCT | 0.197 | 0.127 | -0.1 | 0.085 | 0.161
30 | TGAATG | 0.88 | -0.696 | -0.569 | 0.378 | 1.17
31 | GCTTAA | 0.085 | -0.165 | -0.317 | 0.074 | 0.463
32 | GGGCCC | -0.884 | -0.093 | 0.205 | -0.506 | -0.816
33 | TGAATC | 0.151 | -0.193 | -0.265 | -0.039 | 0.087
34 | ATTCTT | 0.667 | 0.541 | 0.36 | 0.687 | 0.738
35 | CTTCTC | 0.16 | 0.424 | 0.106 | 0.237 | -0.079
36 | TGATGA | 1.24 | -0.665 | -0.389 | 0.754 | 1.44
37 | GGATTG | 0.389 | -0.094 | -0.042 | 0.267 | 0.527
38 | CTCGGG | -0.694 | 0.429 | 0.101 | -0.453 | -0.369
39 | GGGCTA | -0.178 | 0.217 | 0.185 | -0.039 | 0.196
40 | GGCAAT | 1.33 | 0.435 | 1.32 | 0.852 | 1.71

Row | Sequence | 6-mer SELEX enrichment z-score [1] | 6-mer SELEX enrichment z-score [2] | 6-mer SELEX enrichment z-score [3] | 6-mer SELEX enrichment z-score [4] | 6-mer SELEX enrichment z-score [5]
41 | CTTCCG | 0.089 | 0.023 | -0.167 | 0.339 | -0.394
42 | AGACGA | -0.939 | -1.47 | -0.781 | -0.9 | -0.669
43 | TCATAC | 1.09 | 1.86 | 1.77 | 1.36 | 0.811
44 | CCGATA | -0.162 | -0.983 | -0.533 | -0.028 | -0.307
45 | AAGATC | 0.122 | -0.36 | -0.318 | -0.102 | 0.228
46 | GTCCTA | -0.054 | -0.116 | -0.318 | -0.183 | -0.157
47 | GGTGCC | -1.25 | 0.124 | -0.329 | -1.03 | -1.05
48 | TCAATT | 1.13 | 0.881 | 0.956 | 1.1 | 1.24
49 | TGTTCG | -0.098 | 0.331 | -0.081 | -0.136 | -0.081
50 | CACATG | 1.76 | 1.91 | 2.23 | 1.41 | 1.08
51 | CGGCAG | 1.05 | 0.294 | 2.17 | 0.746 | 0.656
52 | CCTTTG | 0.011 | -0.084 | -0.373 | -0.127 | -0.216
53 | AACTTT | 0.719 | -0.23 | -0.337 | 0.691 | 0.983
54 | GGGCAA | 0.043 | 0.118 | 0.613 | 0.179 | 0.388
55 | GCGATC | -0.664 | 0.223 | 0.386 | -0.617 | -0.661
56 | ACAGCG | -2.05 | 0.119 | -0.221 | -1.84 | -1.67
57 | TTGGCG | -0.295 | 0.341 | 0.107 | -0.157 | 0.018
58 | AAGAGT | -0.312 | -0.739 | -0.522 | -0.455 | -0.017
59 | AAACCT | -1.88 | -1.63 | -2.56 | -1.81 | -2.1
60 | GGTCCG | 0.208 | 0.025 | 0.642 | 0.3 | -0.013
